# Test results published in PMC4336329 (PLoS ONE, 2015).
# In all, about 310,000 compounds went through this assay and about 14,000 (4.5%) showed an effect of 50% or more. The effect is printed as a negative number. Some of the results follow.
# Target: human ether-à-go-go-related gene (hERG) potassium channel (human, UniProt Q12809)
# Assay: primary screen, population patch clamp on CHO cells stably expressing hERG
# 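Also: peak tail current of the secondary pulse compared with the same well before compound.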
# human ether-à-go-go-related gene (hERG) potassium channel, sequence (Q12809 whole entry, looked up): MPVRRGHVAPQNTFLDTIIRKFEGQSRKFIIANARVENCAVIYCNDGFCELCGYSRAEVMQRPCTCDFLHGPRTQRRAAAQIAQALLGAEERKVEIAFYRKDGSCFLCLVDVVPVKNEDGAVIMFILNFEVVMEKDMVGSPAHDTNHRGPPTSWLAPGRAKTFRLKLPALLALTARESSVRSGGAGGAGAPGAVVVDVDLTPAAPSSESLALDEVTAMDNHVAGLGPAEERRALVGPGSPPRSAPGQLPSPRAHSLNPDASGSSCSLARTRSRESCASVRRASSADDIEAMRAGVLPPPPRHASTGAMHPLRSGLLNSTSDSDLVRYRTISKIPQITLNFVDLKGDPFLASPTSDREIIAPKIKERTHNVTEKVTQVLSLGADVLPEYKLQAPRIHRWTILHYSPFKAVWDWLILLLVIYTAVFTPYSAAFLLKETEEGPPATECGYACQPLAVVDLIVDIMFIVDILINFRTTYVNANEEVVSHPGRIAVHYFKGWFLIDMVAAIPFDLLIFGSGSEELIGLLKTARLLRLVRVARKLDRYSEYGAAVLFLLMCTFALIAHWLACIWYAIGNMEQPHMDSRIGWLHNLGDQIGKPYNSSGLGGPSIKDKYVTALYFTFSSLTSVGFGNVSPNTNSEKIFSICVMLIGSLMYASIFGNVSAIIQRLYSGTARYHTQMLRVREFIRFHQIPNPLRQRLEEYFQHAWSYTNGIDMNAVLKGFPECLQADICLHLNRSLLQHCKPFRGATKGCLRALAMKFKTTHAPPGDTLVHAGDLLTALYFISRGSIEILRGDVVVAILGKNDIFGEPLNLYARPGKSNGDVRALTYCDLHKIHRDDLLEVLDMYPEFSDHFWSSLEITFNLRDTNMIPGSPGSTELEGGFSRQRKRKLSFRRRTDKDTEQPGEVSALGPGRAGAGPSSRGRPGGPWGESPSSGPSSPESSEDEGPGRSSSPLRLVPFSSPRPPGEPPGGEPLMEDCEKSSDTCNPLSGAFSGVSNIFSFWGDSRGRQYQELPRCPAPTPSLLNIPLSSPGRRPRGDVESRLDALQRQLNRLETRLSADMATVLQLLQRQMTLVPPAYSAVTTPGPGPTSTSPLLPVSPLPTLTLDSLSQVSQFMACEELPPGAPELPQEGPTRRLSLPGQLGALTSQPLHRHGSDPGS
row,SMILES,"hERG current change (%, negative = inhibition) at 10uM"
1,CC(=O)Nc1ccc2nc(-c3cccnc3)[nH]c2c1,3.5%
2,CCOC(=O)c1cn(CC)c2ccc(S(=O)(=O)N3CC(C)CC(C)C3)cc2c1=O (stereo not drawn),-21.7%
3,COCCNC(=O)c1cccc(Nc2nc(-c3ccccc3)c3cc(Cl)ccc3n2)c1,7.86%
4,O=C(NCC1CCCO1)NC12CC3CC(CC(C3)C1)C2 (stereo not drawn),11.6%
5,c1ccc(CCn2c(C3CC3)nc3ccccc32)cc1,-35.3%
6,O=S(=O)(Nc1ccc(-c2ccc3nncn3n2)cc1)c1ccccc1Cl,5.08%
7,Cc1ccc(-c2ocnc2C(=O)Nc2nc(C)cs2)cc1,8.54%
8,COc1ccc(C(=O)Nc2ncc(C)s2)cc1S(=O)(=O)N1CCOCC1,-56.2%
9,CN(Cc1ccccc1)S(=O)(=O)c1ccc(Cl)c(C(=O)NCc2cccnc2)c1,-32.8%
10,CCCC(=O)Nc1c2c(nn1-c1cccc(Cl)c1)CS(=O)(=O)C2,-53.4%
11,CC(C)(CNC(=O)CNC(=O)C1CCCCC1)N1CCOCC1,7.72%
12,COc1ccc(N2CC(C(=O)Nc3ccccc3C(=O)NCc3ccco3)CC2=O)cc1 (stereo not drawn),-42%
13,COc1ccc(C(=O)NCc2ccccc2CN2CCCC2)cc1S(=O)(=O)Nc1ccc(C)cc1,-57.9%
14,Cc1ccc(-c2nc(-c3ccccn3)no2)cc1Cl,-0.62%
15,O=C(CNC(=O)c1cccc(OC(F)F)c1)Nc1ccc(Cl)cc1,-6%
16,O=C1NCN(c2ccccc2)C12CCN(c1nnnn1-c1ccccc1)CC2,-11.7%
17,COc1ccc(-n2c(SCC(=O)N3CCN(c4ccccc4)CC3)nc3c(c2=O)SCC3)cc1,-70%
18,COc1ccccc1-n1cnnc1SC(C)C(=O)NCC1CCCO1 (stereo not drawn),-3.85%
19,CN(C)CCCN(C(=O)c1ccc2c(c1)OCCO2)c1nc2ccc(Cl)cc2s1.Cl,-39.9%
20,Cn1c(=O)[nH]c(=O)c2c1nc(SCC(N)=O)n2Cc1cccc(Br)c1,-8.92%
21,Cc1ccc(C(=O)Nc2cccc(S(=O)(=O)N3CCCC3)c2)o1,-9.98%
22,O=C(c1ccccc1)N1CC(COc2ccccc2)OC(c2cccnc2)O1 (stereo not drawn),-5.14%

row,SMILES,"hERG current change (%, negative = inhibition) at 10uM"
1,Cc1cc(C)nc(NS(=O)(=O)c2ccc(N3C(=O)c4ccccc4C3=O)cc2)n1,0.252%
2,O=C(c1ccccc1)n1ccn(-c2ccccc2)c1=S,-14.9%
3,CC(C)c1cc(N=NC(N)=O)cc(C(C)C)c1O,2.84%
4,CC1CCc2cc(F)ccc2N1C(=O)CSc1nnc(-c2cccs2)n1C (stereo not drawn),-22.6%
5,NC(=O)c1c(-c2ccccc2)oc2ccc(O)cc12,-2.61%
6,O=C(N/N=C/c1cccs1)c1cccs1,12.8%
7,COc1cc2c(cc1NC(=O)COc1ccc3ccccc3c1)oc1ccccc12,20.2%
8,N/C(=N\OC(=O)C1CCCCC1)c1ccccn1,8.36%
9,NC(=O)COC(=O)CC(c1ccccc1)c1ccccc1,4.16%
10,Cc1c([N+](=O)[O-])nnn1-c1cc(Cl)cc(Cl)c1,2.72%
11,C/C(=N\N1C(=O)c2ccccc2NC1c1ccccc1)c1ccccc1O (stereo not drawn),29.6%
12,Cn1ccc(C(=O)Nc2sc3c(c2C#N)CCC3)n1,16%
13,Cc1ccc(S(=O)(=O)N(C)CC(=O)OCC(=O)NC(c2ccccc2)c2ccccc2)cc1,1.8%
14,CCCN(CC#CCOc1ccc(OC)cc1)CCC.O=C(O)C(=O)O,-25.2%
15,Cn1ccnc1C(=O)c1ccc(NN)c([N+](=O)[O-])c1,11.7%
16,NS(=O)(=O)c1ccc(CCNC(=O)COC(=O)Cc2ccc([N+](=O)[O-])cc2)cc1,-30.5%
17,CC(C)c1ccc(/C=C(/C#N)c2nnc(NC(=O)c3ccccc3)s2)cc1,7.09%
18,COC(=O)[C@H](Cc1ccccc1)NC(=O)N1CCC(C)CC1,12.8%
19,O=C(CC1CCCC1)Nc1nnc(C2CC2)s1,5.26%
20,O=C(CS(=O)(=O)c1ccccc1)Nc1ccc(S(=O)(=O)Nc2ccccn2)cc1,34.3%
21,COC(=O)c1sccc1NC(=O)c1ccc(C)s1,17.3%
22,O=C(O)c1cccc(NS(=O)(=O)c2ccc(C3CCCCC3)cc2)c1,14.3%

row,SMILES,"hERG current change (%, negative = inhibition) at 10uM"
1,CC(C)[C@H](NC(N)=O)C(=O)Nc1cccc([N+](=O)[O-])c1,15.2%
2,COc1cccc(NC(=O)Cn2c(=O)oc3ccccc32)c1,7.37%
3,CC1CCN(c2cc(N(C)CCO)c([N+](=O)[O-])c3nonc23)CC1,-7.64%
4,O=C1NC[C@@H](Cc2ccc(O)cc2)N(CCc2cccc(F)c2)C1=O,16.6%
5,COc1ccc(CCN(Cc2ccccn2)C(=S)Nc2ccc(C)cc2)cc1OC,-29.5%
6,O=C(NN1C(=O)C2C3c4ccccc4C(c4ccccc43)C2C1=O)c1ccc(Cl)cc1 (stereo not drawn),-8.19%
7,COc1ccc(-c2c3c(=O)n(C)c(=O)n(C)c3cn2-c2ccc(O)cc2)cc1,-35.2%
8,Cc1cc(-c2csc(N)n2)c(C)n1Cc1ccco1,18.2%
9,CC(=O)Nc1ccc(S(=O)(=O)NCCC(=O)Nc2ncccc2C)cc1,9.81%
10,CC(=O)c1c(C)[nH]c(C(=O)COC(=O)c2ccc3c(=O)n4c(nc3c2)CCC4)c1C,-0.297%
11,C/C(=N/NC(=O)c1ccc2c(c1)OCO2)c1ccc(NC(=O)c2ccc(F)cc2)cc1,9.33%
12,O=C1CCC(C(=O)OCc2cc(=O)oc3ccc4ccccc4c23)=NN1,-1.4%
13,O=C1CS/C(=N\N=C\c2ccccc2Cl)N1CC1CC1,12.3%
14,CCCCn1c(=O)c(C(=O)OCC)c(O)c2ccccc21,2.18%
15,c1ccc(-c2nc3nc4ccccc4nc3n2Cc2ccco2)cc1,-61.2%
16,O=C(NC1CCCC1)c1cccc(S(=O)(=O)Nc2ccccc2F)c1,-0.783%
17,CC1CCN(C(=O)C2CCN(C(=O)c3ccc(C(C)(C)C)cc3)CC2)CC1,-18.6%
18,COc1ccc(C(=O)NC(NC(=S)Nc2ccc(S(N)(=O)=O)cc2)C(Cl)(Cl)Cl)cc1 (stereo not drawn),12.3%
19,Cc1ccc(N(CCC#N)C(=O)COC(=O)c2nc3nc(C)cc(C)n3n2)cc1,2.88%
20,CC(=O)NC(CC(=O)Nc1nc(C)cs1)c1ccccc1 (stereo not drawn),14.1%
21,CCOC(=O)N1CCC(NC(=O)c2cc(COc3ccccc3SC)on2)CC1,4.39%
22,Brc1[nH]nc2ccccc12,-33.6%

row,SMILES,"hERG current change (%, negative = inhibition) at 10uM"
1,Cc1ccsc1C(C(=O)NCc1ccccc1)N(C(=O)c1csnn1)c1ccccc1 (stereo not drawn),18.1%
2,CC(=O)NCCNC(=O)c1oc2ccccc2c1CSc1ncn[nH]1,21.8%
3,Cc1cccc(-n2nnc(C(=O)N3CCc4ccccc4C3)c2N)c1,-12.2%
4,COc1cccc(Cn2cnc3c(NS(=O)(=O)c4cccc(Cl)c4Cl)c(C)c(C)cc32)c1,9.93%
5,CCc1cc(C(=O)Nc2ccccc2N2CCOCC2)sc1C,-3.13%
6,[O-]/C(=C(\C(=S)Nc1cccc2ccccc12)[n+]1ccccc1)c1ccc2c(c1)OCCO2,-18.7%
7,c1ccc(C2c3[nH]c4ccccc4c3CCN2Cc2cccn2-c2cccnc2)nc1 (stereo not drawn),-23.7%
8,COc1ccc(C(=O)NC2CC3CCCC(C2)N3Cc2ccccc2)c(OC)c1 (stereo not drawn),-26.5%
9,O=C(O)c1ccccc1/C=N/NC(=S)NCc1ccccc1,3.74%
10,O=C(COc1ccc(Cl)cc1)Nc1ccccc1C(=O)NCc1cccnc1,-5.76%
11,COC(=O)c1c(C(=O)OC)c(-c2ccc(C(C)(C)C)cc2)n2c1CS(=O)C2 (stereo not drawn),11%
12,CCN1CCN(Cc2cc(OC)c(OC)cc2[N+](=O)[O-])CC1,8.59%
13,Cc1ccccc1OCC(=O)NCCC1=CCCCC1,-18.9%
14,COc1ccc(-c2sc3ccc(OC)cc3c2-c2ccc(OC)c(F)c2)cc1,9.59%
15,NC(=O)CC(NC(=O)c1ccc(Br)cc1)c1ccc(NC2CCCCCC2)c([N+](=O)[O-])c1 (stereo not drawn),23.9%
16,Cc1cccc(-c2ncc(CN3CCC(CO)(CCCc4ccccc4)CC3)cn2)c1,-54.1%
17,CC(=O)c1cccc(N(CC(=O)NC2CCCCC2)C(=O)CNC(=O)c2cccs2)c1,3.36%
18,NC(=O)COC(=O)c1cccc(S(=O)(=O)N2CCCc3ccccc32)c1,-4.32%
19,Cc1cccc(N=C2NC(=O)/C(=C/c3cccn3C)S2)c1C,10.5%
20,O=c1c(-c2ccccc2)c(O)nc2ccccn12,9.42%
21,O=C(NCCCN1CCN(c2cccc(Cl)c2)CC1)C1(S(=O)(=O)c2ccc(Cl)cc2)CC1,-71%
